{"source": "PubChem BioAssay AID485294", "about": "(National Center for Advancing Translational Sciences (NCATS), 2010)", "note": "About 150 (0.041%) of roughly 370,000 compounds were called active. Inconclusive results, whose numbers are uncertain, are shown with a selection of clear calls. The call rests on the fitted dose curve; in most records, active means well fitted inhibition curve with a large enough effect; inconclusive means small, poorly fitted or top-dose-only effect; inactive means flat fitted curve, though single readings scatter. No potency is given beside an inconclusive call; the fits are too rough. Potency means the concentration at half of the fitted maximal effect; tags describe the fitted curve by direction and shape.", "data": [{"target": "Beta-lactamase (Escherichia coli (strain K12)) (UniProt P00811)", "sequence (P00811 whole entry, looked up)": "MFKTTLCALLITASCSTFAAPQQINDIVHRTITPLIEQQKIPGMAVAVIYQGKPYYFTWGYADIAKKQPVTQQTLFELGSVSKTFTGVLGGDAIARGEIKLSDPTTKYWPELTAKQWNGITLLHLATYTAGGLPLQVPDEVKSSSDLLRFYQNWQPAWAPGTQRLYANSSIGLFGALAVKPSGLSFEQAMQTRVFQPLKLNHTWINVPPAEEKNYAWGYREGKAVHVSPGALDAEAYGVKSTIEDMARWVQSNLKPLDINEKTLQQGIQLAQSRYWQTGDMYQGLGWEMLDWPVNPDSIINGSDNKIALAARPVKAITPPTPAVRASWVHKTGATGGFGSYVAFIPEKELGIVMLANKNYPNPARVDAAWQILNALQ", "assay": "qHTS Inhibitors of AmpC Beta-Lactamase (assay with detergent); further: nearly all actives have a fitted effect of over 25% in size;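 on activity change, negative = inhibition: 0% = no-compound wells and -100% = no-enzyme wells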", "conditions": "AmpC hydrolysis of nitrocefin, absorbance 480 nm, 0.01% Triton; activity change, negative = inhibition: at 114 µM (top of the series)", "in_short": "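20 mM phosphate pH 7.0 + 0.01% (detergent screen) or 0.0001% Triton X-100; 5.3 nM AmpC reagent; cpd preinc 15 min RT; nitrocefin (800 uM stock) to start; A480 q20 s × 4 min; Activity was normalised to no-enzyme and no-compound control wells.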", "values": [{"smiles": "CC(Oc1ccccc1)C(=O)OCC(=O)N1CC(=O)Nc2ccccc21", "note": "(stereo not drawn)", "Potency": "inconclusive [inhibitor, full curve, poor fit]"}, {"smiles": "COCCNC(=O)c1cc(C)ccc1C", "Potency": "inconclusive [inhibitor, full curve, poor fit]"}, {"smiles": "Cc1nn(CC(=O)NCC(C)c2ccccc2)c(=O)c2cc3ccccc3n12", "note": "(stereo not drawn)", "activity change, negative = inhibition": "inactive: -2.87%"}, {"smiles": "CCCCCOc1ccccc1C(=O)NCCCC(=O)O", "Potency": "inconclusive [inhibitor, full curve]"}, {"smiles": "O=C(N/N=C\\c1cccnc1)c1ccc(Br)s1", "Potency": "inconclusive [inhibitor, full curve]"}, {"smiles": "Cc1ccc(CC(=O)Nc2ccc(F)c([N+](=O)[O-])c2)cc1", "Potency": "inconclusive [inhibitor, single point]"}, {"smiles": "COc1cccc(CNC(=O)CCn2c(=O)c3cccn3c3cccnc32)c1OC", "activity change, negative = inhibition": "inactive: 15.8%"}, {"smiles": "O=C(NCCC1=CCCCC1)c1cc2c(s1)CS(=O)(=O)C2", "Potency": "inconclusive [inhibitor, full curve, poor fit]"}, {"smiles": "Cc1ccc2[nH]c(C(=O)O)c(-c3ccccc3)c2c1", "Potency": "inconclusive [inhibitor, full curve, poor fit]"}, {"smiles": "CC(=O)c1ccc(NC(=O)c2nc(-c3ccccc3)n(-c3ccccc3Cl)n2)cc1", "activity change, negative = inhibition": "inactive: 4.35%"}, {"smiles": "N#Cc1ccc(NC(=O)COC(=O)C2=COCCO2)cc1", "activity change, negative = inhibition": "inactive: -1.31%"}, {"smiles": "COc1ccc(OC)c(S(=O)(=O)N2CCN(c3ccccc3)CC2)c1", "Potency": "inconclusive [inhibitor, full curve]"}, {"smiles": "CC(=O)N(CCc1ccccc1C)Cc1cc2cc(C)ccc2[nH]c1=O", "Potency": "inconclusive [inhibitor, full curve, poor fit]"}, {"smiles": "Cn1c(C(=O)NCCN2CCOCC2)cc2c(=O)n(C)c3ccccc3c21", "Potency": "inconclusive [inhibitor, full curve, poor fit]"}, {"smiles": "CCCn1c(SCC(=O)N2CCCc3ccccc32)nc2c1c(=O)n(C)c(=O)n2C", "Potency": "active: 35.5 µM"}, {"smiles": "O=C(NCc1ccccn1)c1cc2cc(Br)ccc2oc1=O", "Potency": "inconclusive [inhibitor, full curve]"}, {"smiles": "COc1ccc(CN2C(=O)c3ccccc3C2C(=O)NCC2CCCO2)c(OC)c1", "note": "(stereo not drawn)", "activity change, negative = inhibition": "inactive: -11.6%"}, {"smiles": "COc1ccc(NC(=O)COC(=O)CCNS(=O)(=O)c2ccccc2)cc1OC", "Potency": "inconclusive [inhibitor, full curve, poor fit]"}, {"smiles": "FC(F)(F)c1nc(N2CCCC2)ncc1-c1nnnn1-c1ccccc1", "Potency": "inconclusive [inhibitor, full curve, poor fit]"}, {"smiles": "Cc1ccccc1C(=O)/C(C#N)=N/Nc1c(C)n(C)n(-c2ccccc2)c1=O", "Potency": "inconclusive [inhibitor, full curve, poor fit]"}, {"smiles": "CCOc1ccc(CCNC(=O)C2CCN(c3ccc(N4CCOCC4)nn3)CC2)cc1OCC", "Potency": "inconclusive [inhibitor, partial curve]"}, {"smiles": "CC(C)c1cc(=O)oc2c3c4c(cc12)CCCN4CCC3", "activity change, negative = inhibition": "inactive: -4.25%"}, {"smiles": "CCCCCCn1cnc2c(c1=O)c1nc3ccccc3nc1n2/N=C/c1ccco1", "activity change, negative = inhibition": "inactive: -6.81%"}, {"smiles": "O=C(CSc1ncccc1C(=O)O)c1ccc2ccccc2c1", "activity change, negative = inhibition": "inactive: 0.769%"}, {"smiles": "COc1ccc(C(O)c2ccccc2OP(=O)(N(C)C)N(C)C)cc1", "note": "(stereo not drawn)", "activity change, negative = inhibition": "inactive: 1.59%"}, {"smiles": "CCOC(=O)c1ccc(N2C(=O)CC(N3CCN(C(=O)c4ccco4)CC3)C2=O)cc1", "note": "(stereo not drawn)", "Potency": "inconclusive [inhibitor, full curve, poor fit]"}, {"smiles": "Cn1cc(C(=O)NCCc2ccc(Cl)cc2)c(=O)c2cc(S(=O)(=O)N3CCOCC3)ccc21", "activity change, negative = inhibition": "inactive: 1.11%"}, {"smiles": "CC(=O)c1ccc(OC(C)C)c(CC(C(N)=O)C(N)=O)c1", "Potency": "inconclusive [inhibitor, single point]"}, {"smiles": "O=C(c1cc2ccccc2o1)c1cccs1", "activity change, negative = inhibition": "inactive: -9.54%"}, {"smiles": "CC(C)C(=O)Nc1ccc2c(c1)nc(CCN1CCN(c3ccccn3)CC1)n2C", "Potency": "inconclusive [inhibitor, full curve, poor fit]"}, {"smiles": "CC(Nc1nc(Nc2ccc(F)cc2)nc(SCC(N)=O)n1)c1ccccc1", "note": "(stereo not drawn)", "Potency": "inconclusive [inhibitor, full curve, poor fit]"}, {"smiles": "O=c1[nH]c(C2CCCN(S(=O)(=O)c3ccccc3Cl)C2)nc2c1nnn2Cc1ccc(OC(F)(F)F)cc1", "note": "(stereo not drawn)", "activity change, negative = inhibition": "inactive: 19.6%"}, {"smiles": "FC(F)Sc1nnc(-c2cccs2)n1-c1ccccc1", "Potency": "inconclusive [inhibitor, full curve, poor fit]"}, {"smiles": "Cc1ccc(-c2nnc(-c3ccc(NC(=O)c4ccco4)cc3)o2)cc1", "Potency": "inconclusive [inhibitor, full curve]"}, {"smiles": "CCCc1cc(=O)oc2c(C)c(OCC(=O)N3CCC(C(=O)O)(c4ccccc4)CC3)ccc12", "Potency": "inconclusive [inhibitor, full curve, poor fit]"}, {"smiles": "CCCCCSc1cc(OC)c(CCN)cc1OC", "Potency": "inconclusive [inhibitor, partial curve, poor fit]"}, {"smiles": "O=[P+](Cc1ccccc1)Cc1ccccc1", "Potency": "inconclusive [inhibitor, full curve, poor fit]"}, {"smiles": "CCOc1ccc([N+](=O)[O-])c(N)c1", "Potency": "inconclusive [inhibitor, full curve, poor fit]"}, {"smiles": "O=C(Nc1ccc(N2CCOCC2)cc1)c1cnsn1", "activity change, negative = inhibition": "inactive: -13.4%"}, {"smiles": "CCc1ccc(OCC(=O)NCc2ccco2)c(Br)c1", "activity change, negative = inhibition": "inactive: -8.36%"}, {"smiles": "Cc1nnsc1C(=O)NC1CCCCC1", "Potency": "inconclusive [inhibitor, full curve, poor fit]"}, {"smiles": "CC(CNCc1ccc2c(c1)OCO2)NCc1ccc2c(c1)OCO2", "note": "(stereo not drawn)", "Potency": "inconclusive [inhibitor, partial curve, poor fit]"}, {"smiles": "C/C(N)=C(/C#N)C(=O)CSc1nc2ccc(C)cc2[nH]1", "Potency": "inconclusive [inhibitor, single point]"}, {"smiles": "OC1CCN(Cc2ccc(OCc3ccccc3)cc2)CC1", "Potency": "inconclusive [inhibitor, full curve, poor fit]"}, {"smiles": "CC1CCCCN1C(=O)CSc1n[nH]c(-c2ccccc2)n1", "note": "(stereo not drawn)", "activity change, negative = inhibition": "inactive: 14.9%"}, {"smiles": "Cc1ccc2[nH]c(=O)c(CN(CCCN3CCOCC3)C(=O)NC3CCCCC3)cc2c1", "Potency": "inconclusive [inhibitor, full curve, poor fit]"}, {"smiles": "COc1ccc(Cn2c(C)ccc2C)cc1", "Potency": "inconclusive [inhibitor, single point]"}, {"smiles": "O=C(N[C@@H](Cc1ccc(Br)cc1)C(=O)O)OCC1c2ccccc2-c2ccccc21", "Potency": "inconclusive [inhibitor, full curve, poor fit]"}, {"smiles": "COC(=O)c1cccnc1NC(=S)NC1CCCCC1", "activity change, negative = inhibition": "inactive: -4.8%"}, {"smiles": "COc1ccc(NS(=O)(=O)c2ccc(N3CCOCC3)c(NC(=O)c3ccccc3Cl)c2)cc1", "Potency": "inconclusive [inhibitor, full curve]"}, {"smiles": "CC(=O)Nc1ccc(NS(=O)(=O)c2ccccc2)cc1", "Potency": "inconclusive [inhibitor, single point]"}, {"smiles": "O=C(Nc1ccc(S(=O)(=O)NCc2cccnc2)cc1)c1ccccc1Cl", "Potency": "inconclusive [inhibitor, partial curve, poor fit]"}, {"smiles": "COc1ccc(CNC(=O)C2CCCN(S(=O)(=O)c3c(C)nn(C)c3C)C2)cc1", "note": "(stereo not drawn)", "Potency": "inconclusive [inhibitor, partial curve, poor fit]"}, {"smiles": "CC1CCN(CCC(=O)Nc2ccc3c(c2)CCC3)CC1", "activity change, negative = inhibition": "inactive: -10.1%"}, {"smiles": "Cc1cc(NC(=O)N2CCC(CN3CCOCC3)CC2)ccc1Br", "activity change, negative = inhibition": "inactive: -1.64%"}, {"smiles": "Cc1ccc(O)c(C(=O)c2cnn(C(=O)Cc3csc(C)n3)c2)c1", "Potency": "inconclusive [inhibitor, full curve, poor fit]"}, {"smiles": "O=C(COc1ccccc1C(=O)N/N=C\\c1ccc(O)c(O)c1)N/N=C/c1ccc(O)c(O)c1", "Potency": "inconclusive [inhibitor, full curve]"}, {"smiles": "CC(C)CN(C(=O)CCCSc1nc2ccccc2[nH]1)c1c(N)n(Cc2ccccc2)c(=O)[nH]c1=O", "Potency": "inconclusive [inhibitor, single point]"}, {"smiles": "COc1cc2c3c(c1)c(C1=NC(=S)NC1=O)c(O)n3C(C)(C)C=C2C", "Potency": "inconclusive [inhibitor, full curve, poor fit]"}, {"smiles": "N#CC(C#N)=Cc1cc2ccccc2nc1N1CCOCC1", "Potency": "inconclusive [inhibitor, full curve, poor fit]"}, {"smiles": "O=C1C(Cc2ccccc2)Nc2ncnc(N3CCc4ccccc4C3)c2N1Cc1ccc(Cl)cc1", "note": "(stereo not drawn)", "Potency": "inconclusive [inhibitor, partial curve]"}, {"smiles": "CN(c1ccccc1)c1ncnc2c1cnn2C", "activity change, negative = inhibition": "inactive: 5.39%"}, {"smiles": "O=C(Nc1ccc(Br)cc1)c1cccc(OC(=S)N2CCOCC2)c1", "Potency": "inconclusive [inhibitor, full curve]"}, {"smiles": "CCC(=O)Nc1ccccc1-c1nc2ccccc2n(C(C)C(=O)Nc2ccc(OC)cc2)c1=O", "note": "(stereo not drawn)", "activity change, negative = inhibition": "inactive: -1.95%"}, {"smiles": "Cc1[nH]n(C(N)=S)c(=O)c1N=Nc1ccc(S(=O)(=O)N2CCCCCC2)cc1", "Potency": "inconclusive [inhibitor, single point]"}, {"smiles": "COc1ccccc1-c1ccc(SCC(=O)N2CCOCC2)nn1", "Potency": "inconclusive [inhibitor, partial curve, poor fit]"}, {"smiles": "CN(C(=O)COC(=O)c1cc(-c2ccco2)nc2ccccc12)C1CCS(=O)(=O)C1", "note": "(stereo not drawn)", "Potency": "inconclusive [inhibitor, single point]"}, {"smiles": "CC(C)(C)c1ccc(-c2nnc3sc(-c4ccccn4)nn23)cc1", "Potency": "inconclusive [inhibitor, full curve, poor fit]"}]}]}
